In all, about 44,000 compounds went through this assay and about 340 (0.77%) were called active. Not shown: some 5% with an inconclusive outcome. The call rests on the fitted dose curve; in most records, active means well fitted inhibition curve with a large enough effect; inconclusive means small, poorly fitted or top-dose-only effect; inactive means flat fitted curve, though single readings scatter. This is one part of the list.
Test: Acumen qHTS Assay for Inhibitors of the mTORC1 Signaling Pathway in MEF (Tsc2-/-, p53-/-) Cells: Sytravon;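 further: plate controls were DMSO for no effect and rapamycin for full effect; nearly all actives have a fitted effect of over 50% in size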
Settings: phospho-rpS6 immunofluorescence/PI, 24 h; series mostly up to 38.3 µM; activity change, negative = inhibition: at the top concentration
How it was run: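 Tsc2-/-, p53-/- MEFs (empty-vector stable line) in DMEM + 10% FBS were treated with compounds 24 h at 37 degree Celsius, fixed, and immunostained for phospho-rpS6 (Alexa-488) with propidium iodide counterstain. Laser-scanning cytometry gave % positive cells, normalized against 7.5 nM rapamycin and DMSO.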

Activity change, negative = inhibition, inactive:
CCOCCc1nn2c(=O)cc(COC(=O)CNC(=O)c3ccc(F)cc3)nc2s1 0.0824%
COc1ccc(-c2cn3c(n2)sc2cc(C(=O)Nc4ccc(F)cc4Cl)ccc23)cc1 -7.95%
COc1ccc(-n2ccn(CC(=O)Nc3ccc(C)c(C)c3)c(=O)c2=O)cc1OC 9.34%
CCOc1cc2[nH]c(=O)n(CCCC(=O)NCc3ccc(OC)cc3)c(=O)c2cc1OCC -0.483%
CC(C)CCNC(=O)c1nn(C)c2c1CSc1ccccc1-2 -1.75%
COC(=O)c1c(-c2cccs2)csc1NC(=O)c1cc(OC)c(OC)c(OC)c1 0%
CC1CCCN(S(=O)(=O)c2cc(C(=O)NCc3ccccc3Cl)n(C)c2)C1 (stereo not given) -9.52%
Cc1ccc(F)cc1NC(=O)CCSc1nc(-c2ccco2)cc(C(F)(F)F)n1 -21.4%
Cc1ccc(NC(=O)C(=O)NCC(c2cccnc2)N2CCc3ccccc3C2)cc1 (stereo not given) 3.57%
CCN(C(=O)c1cc2cc(Br)cc(OC)c2oc1=O)c1ccccc1 2.79%
COc1cccc(C2c3c(-c4ccccc4O)n[nH]c3C(=O)N2Cc2cccnc2)c1 (stereo not given) 1.52%
O=S(=O)(Nc1ccc(-c2ccc(N3CCCC3)nn2)cc1)c1ccc(OC(F)(F)F)cc1 0.582%
O=C(NC1CCCCCC1)c1ccc(CS(=O)c2ccc(Br)cc2)o1 (stereo not given) -7.85%
CCc1ccccc1NC(=O)Cn1c(=O)n(-c2ccc(C)c(C)c2)c(=O)c2oc3ccccc3c21 -3.92%
Cc1ccc(NC(=O)CSCc2cnn(-c3ccccc3)c2-n2cccc2)c(Cl)c1 -0.0334%
COc1ccc(CCNc2nc3ccccc3c3nc(-c4cccc(C)c4)nn23)cc1OC 1.35%
COc1ccc(S(=O)(=O)NCCc2sc(-c3cccc(C)c3)nc2C)cc1 -7.63%
Cc1ccc(CCNC(=O)c2cccc(Nc3nc4ccccc4nc3-n3nc(C)cc3C)c2)cc1 0.385%
CCc1ccc(-n2nc(C)c3c(C(=O)N4CCN(c5cccc(Cl)c5)CC4)cc(C)nc32)cc1 -16.3%
CCOC(=O)c1ccc(NC(=O)CCc2c(C)nc3c(c(C)nn3C(C)(C)C)c2C)cc1 -5.79%
Cc1nn(CC(=O)N2CCN(c3cccc(Cl)c3)CC2)c(=O)c2c1sc1ccccc12 -3.53%
COc1cc(OC)c(NC(=O)NCc2cccn2Cc2ccccc2)cc1Cl -25%
CCOc1cc(C(=O)OCc2cc(=O)n3nc(C4CC4)sc3n2)cc(OCC)c1OCC 1.18%
Cc1ccc(S(=O)(=O)NCCc2nnc3ccc(SCC(=O)Nc4ccc(OC(F)(F)F)cc4)nn23)cc1 -1.88%
O=C1COc2cc(S(=O)(=O)CCC(=O)N3CCN(c4ccccc4)CC3)c(Cl)cc2N1 5.12%
CCOc1ccc(NC(=O)Cn2c(=O)c(CNc3ccccc3)cc3cc4c(cc32)OCCO4)cc1 -2.78%
CCCc1ccc(-c2ccc(C(=O)Oc3ccc(Br)cc3)cc2)nc1 1.03%
COC(=O)c1ccc(CSc2nc3c([nH]c4ccccc43)c(=O)n2-c2cc(C)cc(C)c2)o1 -8.59%
CCCCCn1c(CNC(=O)c2ccc(F)cc2)nc2ccccc21 -18.8%
CN(C(=O)Cn1ncc2c1-c1ccccc1OC2)c1ccc(Br)cc1 3.43%
O=C(Nc1ccc2c(c1)OCO2)c1cc(-c2ccc(Cl)cc2)on1 -3.53%
COc1ccccc1OCC(=O)Nc1c(C(=O)c2ccc(C)cc2)oc2ccccc12 14.7%
CCOC(=O)c1c(C)[nH]c(C)c1S(=O)(=O)N1CCC(C(=O)NCc2ccc(N(C)C)cc2)CC1 -4.01%
COc1ccc(OC)c(CCNC(=O)C(C)n2c(C)c3cnn(-c4ccccc4)c(=O)c3c2C)c1 (stereo not given) 4.29%
COc1ccccc1CNS(=O)(=O)c1ccc(N2CCCCS2(=O)=O)cc1 0%
COc1ccc(Cl)cc1C(=O)Nc1c2c(nn1-c1ccc(Cl)cc1)CS(=O)(=O)C2 5.54%
CCOc1ccc(CNC(=O)C2=Cc3cc(Br)ccc3OC2)cc1OC -18.6%
COc1ccccc1NC(=O)c1oc2ccccc2c1NC(=O)COc1ccccc1OC -14.1%
COc1ccc(Cl)cc1NC(=O)CSc1nc(=O)[nH]c2c1CCCC2 -0.0304%
CCOc1ccc(NC(=O)Cn2cc(C(=O)c3ccccc3)c(=O)c3cc4c(cc32)OCO4)cc1 -2.1%
COc1cc(Cl)c(NC(=O)CN(C)S(=O)(=O)c2ccc3c(c2)CCCC(=O)N3)c(OC)c1 -1.7%
Cc1ccc2oc(-c3ccc(NC(=O)c4cccc(F)c4)c(C)c3)nc2c1 -4.96%
COc1ccc(NC(=O)c2cc(C)nc3c2c(C)nn3-c2cccc(Cl)c2C)c(OC)c1 0.346%
CC(=O)N1c2c(cc(Br)cc2S(=O)(=O)NCc2ccccc2Cl)CC1C (stereo not given) -13.7%
COc1cc(NC(=O)N2CCC(CN3CCc4ccccc4C3)CC2)cc(OC)c1 -1.73%
Cc1ccc(-c2nnc(Nc3cccc(O)c3)c3ccccc23)cc1S(=O)(=O)N1CCCCC1 11.6%
CCOc1ccc(OCC)c(NC(=O)c2csc3c2CCCC3)c1 -4.38%
O=C(O)c1ccc2c(c1)N(Cc1ccc(F)cc1Cl)C(=O)c1ccccc1S2 6.34%
COc1ccc(CCNC(=O)c2cc(S(=O)(=O)N3CCCC(C)C3)cn2C)cc1OC (stereo not given) 5.99%
COc1ccc(NC(=O)CCS(=O)(=O)c2nc(-c3ccc4c(c3)OCO4)cc(C(F)(F)F)n2)c(OC)c1 1.5%
CC(C)N(Cc1ccccc1)C(=O)CN1C(=O)COc2ccc(S(=O)(=O)N3CCCCCC3)cc21 -20.6%
CCN(C(=O)c1cnc(N2CCOCC2)c2ccccc12)c1cc(C)ccc1C -1.47%
CC(CNC(=O)CCCn1c(=O)c2cccn2c2ccccc21)c1ccccc1 (stereo not given) -8.76%
CCOc1ccccc1NC(=O)c1ccc2c(Cl)c3c(nc2c1)CCCC3 -8.64%
CC(=O)Nc1ccc(NC(=O)CCC(=O)c2ccc(C)cc2)cc1 0.272%
O=C(OCc1cc(=O)n2nc(-c3cccs3)sc2n1)c1ccccc1Br -10.6%
Cc1cc(NC(=O)C(C)(C)Oc2ccc(Cl)cc2)cc(-c2nc3ncccc3o2)c1O -0.307%
CCCn1c2ccccc2c2cnn(CC(=O)Nc3ccc(C)cc3Br)c(=O)c21 -3.33%
Cc1cc2ccccc2n2c(SCC(=O)Nc3cccc(C(F)(F)F)c3)nnc12 -10.1%
CCOC(=O)c1ccc(NC(=O)CSc2nccn2Cc2ccc(OC)cc2)cc1 -3.02%
Cc1cc(C)cc(C(=O)Nc2nnc3n2CCS3)c1 -0.445%
CC(=O)c1cccc(NC(=O)c2c(C)nn(-c3ccc(F)cc3)c2-n2cccc2)c1 -6.65%
CCCCCN1C(C(=O)c2ccccc2)=C(NC(C)=O)c2ccccc2S1(=O)=O -14.2%
O=C(CSc1ncc2c(n1)-c1cc(Cl)ccc1N(Cc1ccccc1F)S2(=O)=O)Nc1cccc(C(F)(F)F)c1 -9.65%
COC(=O)c1cc(NC(=O)c2ccc3c(c2)N(Cc2cccc(Cl)c2)C(=O)c2ccccc2S3=O)cc(C(=O)OC)c1 (stereo not given) 3.21%
COc1ccc(OCc2nc3c4c(-c5ccc(OC)cc5)c(-c5ccc(OC)cc5)oc4ncn3n2)cc1 9%
CNc1oc(-c2ccc(COc3ccc(C)cc3)o2)nc1C#N -1.04%
Cc1cccc(CNC(=O)c2sc3ncnc(N(C)C4CCCCC4)c3c2C)c1 -6.86%
CCN(CC)c1nc(-c2ccccc2Cl)c2cc(Br)ccc2n1 -8.67%
O=C(C1CC1)N1CCN(c2nc3c(F)cc(F)cc3s2)CC1 -5.43%
Cc1nn(-c2ccccc2)c2nc(C3CC3)cc(C(=O)NCc3ccccc3Cl)c12 -1.3%
CCc1ccc(NC(=O)c2sc3nc(C)c(Cl)c(C)c3c2NC(=O)c2ccccc2)cc1 3.76%
Cc1cc(Cl)ccc1OCC(=O)N(Cc1ccc(N(C)C)cc1)CC1CCCO1 (stereo not given) -6.36%
CC(C)Nc1ccc(-c2nc(-c3ccccn3)no2)cc1[N+](=O)[O-] 1.34%
O=S(=O)(c1ccc(-c2cnc(C3CC3)o2)cc1)N1CCN(c2cccc(Cl)c2)CC1 7.48%
CCOc1ccccc1C(=O)Nc1cc(-c2ccc(C)cc2)no1 3.96%
Cc1cccc(S(=O)Cc2ccc(C(=O)NC3CCCCCC3)o2)c1 (stereo not given) 0.316%
Cc1ccc(C(=O)Nc2ccc(C(=O)OCc3cc(=O)n4c5c(sc4n3)CCCC5)cc2)cc1 0%
Cc1c(-c2ccccc2)n(-c2ccccc2O)c2nc3c(c(=O)n(C)c(=O)n3C)n12 -1.29%
O=C(c1ccc2c(c1)N(Cc1ccccc1)C(=O)c1ccccc1S2=O)N1CCC(Cc2ccccc2)CC1 (stereo not given) -18.8%
Cc1ccc2c(c1)c(=O)c(S(=O)(=O)c1ccc(C)c(C)c1)cn2CC(=O)Nc1ccccc1 -4.47%
CCCOc1ccc(C2=NC(c3ccc(F)cc3)=Nc3ccc(OC)cc3N2)cc1 0.841%
CCc1cccc(C)c1NC(=O)C1=C(C)C(=O)OC12CCC(C)CC2 (stereo not given) -5%
COc1ccccc1Nc1ncc(C(=O)Nc2ccc(OC)c(OC)c2)c2ccccc12 -10.8%
COc1ccccc1CNC(=O)c1cnc2sc(N3CCOCC3)nn2c1=O 2.1%
COc1ccc(N2CCN(C(=O)Cn3nc(Cc4cccnc4)c4ccccc4c3=O)CC2)cc1 -11.4%
Cc1ccc(Nc2ncnc3c2nc2n3CCCC2)c(Br)c1 -1.41%
COc1ccc(NC(=O)NCC2CCN(Cc3ccccc3F)CC2)c(OC)c1 -0.629%
COc1ccc2nc(N(Cc3cccnc3)C(=O)COc3ccccc3)sc2c1 0.0053%
COC(=O)c1cc(S(=O)(=O)N2CCN(c3ccc(F)cc3)CC2)cn1C 0%
COc1ccccc1CNC(=O)c1ccc2c(c1)CCN2S(=O)(=O)c1ccc(Cl)cc1 -2.13%
Cn1cc(C(=O)NCCc2ccc(Cl)cc2)c(=O)c2cc(S(=O)(=O)N3CCCCC3)ccc21 2.93%
COC(=O)c1ccc(Cn2nnc3c(=O)[nH]c(C4CCCN(S(=O)(=O)c5ccccc5)C4)nc32)cc1 (stereo not given) -4.88%
CCCC(CCC)C(=O)Nc1cccc(-c2nc3cccnc3s2)c1 -0.611%
CCc1ccccc1NC(=O)N1CCC2(CC1)Oc1ccccc1C(=O)N2Cc1ccccc1F -18.4%
